The source of these data is a collection of fitness landscapes (doi:10.1126/science.1257360).

B1: PhoQ; a variant is named by its letters at X, in order, P23837 (parent)
chain: MKKLLRLFFPLSLRVRFLLATAAVVLVLSLAYGMVALIGYSVSFDKTTFRLLRGESNLFYTLAKWENNKLHVELPENIDKQSPTMTLIYDENGQLLWAQRDVPWLMKMIQPDWLKSNGFHEIEADVNDTSLLLSGDHSIQQQLQEVREDDDDAEMTHSVAVNVYPATSRMPKLTIVVVDTIPVELKSSYMVWSWFIYVLSANLLLVIPLLWVAAWWSLRPIEALAKEVRELEEHNRELLNPATTRELTSLVRNLNRLLKSERERYDKYRTTLTDLTHSLKTPLXXLQXXLRSLRSEKMSVSDAEPVMLEQISRISQQIGYYLHRASMRGGTLLSRELHPVAPLLDNLTSALNKVYQRKGVNISLDISPEISFVGEQNDFVEVMGNVLDNACKYCLEFVEISARQTDEHLYIVVEDDGPGIPLSKREVIFDRGQRVDTLRPGQGVGLAVAREITEQYEGKIVAGESMLGGARMEVIFGRQHSAPKDE

Some of the results follow.

In this assay the parent is B1. Nature of the assay: enrichment ratio after two sorts for PhoP signalling (ratio (wild type AVST 3.29)); higher = more functional. Particulars: with PhoP (E. coli).
Regarding VAPQ, the enrichment ratio is not above 0.25.
In the case of FMIS, the enrichment ratio was not above 0.25.
For SDEL the value was not above 0.25.
Take DMCN: the enrichment ratio was not above 0.25.
Turning to HYMF, the enrichment ratio is not above 0.25.
Next, DKLF: not above 0.25; HAWT: not above 0.25; HERT: not above 0.25.
Next, ELTY: not above 0.25.
Next, KLIP: not above 0.25; FQWH: not above 0.25.
Take VNGW: the enrichment ratio is not above 0.25.
For KHDD the value was not above 0.25; for SWMQ, not above 0.25; for ACTG, not above 0.25.
Next, YVST: not above 0.25.
For FYSD the value was not above 0.25; for TFHR, not above 0.25; for ADAQ, not above 0.25.
Consider RFFM, for which the enrichment ratio is not above 0.25.
Consider YFII, for which the enrichment ratio was not above 0.25.
For IGTV, the enrichment ratio was not above 0.25.
With KAAC, the enrichment ratio was not above 0.25.
For AGQV the value was not above 0.25; for KHDP, not above 0.25; for IAQQ, not above 0.25.
For TNHT the value was not above 0.25.
Next, CYYY: not above 0.25; WDYN: not above 0.25; LFHM: not above 0.25.
Take FCYE: the enrichment ratio was not above 0.25.
Next, GWFG: not above 0.25; EIHD: not above 0.25.
Next, PIIE: not above 0.25; AAPN: not above 0.25; IELH: not above 0.25.
For FGKM the value was not above 0.25; for IMLC, not above 0.25; for FHER, not above 0.25.
Turning to DWYW, the enrichment ratio is not above 0.25.
Next, QFMF: not above 0.25.
As to FRAI, the enrichment ratio is not above 0.25.
With DIET, the enrichment ratio is not above 0.25.
Next, IEYV: not above 0.25; QIWR: 10.3.
Next, NVYM: not above 0.25; NSHY: not above 0.25; WDSW: not above 0.25.
With DWAW, the enrichment ratio was not above 0.25.
Next, NKVD: 0.422; ITLH: not above 0.25; PRQL: not above 0.25.
Next, RIPK: not above 0.25; DRGL: not above 0.25; YGCW: not above 0.25.
In the case of YDWA, the enrichment ratio is not above 0.25.
For RWMI the value was not above 0.25.
Turning to LCDH, the enrichment ratio was not above 0.25.
For IDIW the value was not above 0.25; for AWQS, not above 0.25; for GWNN, not above 0.25.
Next, PNVS: not above 0.25.
Next, IACK: not above 0.25; WTLW: not above 0.25; VDTR: not above 0.25.
Turning to LLHM, the enrichment ratio was not above 0.25.
For FTAC the value was not above 0.25; for MLST, not above 0.25.
For SLQD the value was not above 0.25; for RSQT, not above 0.25; for EQIL, not above 0.25.
On to EDQD, for which the enrichment ratio was not above 0.25.
For TQCD the value was 29.3; for LQCG, not above 0.25.
Next, IHFW: not above 0.25; TQNT: 15.4.
On to KMDI, for which the enrichment ratio was not above 0.25.
For YCRY the value was not above 0.25.
Take RYEM: the enrichment ratio was not above 0.25.
As to WNKI, the enrichment ratio was not above 0.25.
For SGFY the value was 7.06; for MGHC, not above 0.25.
As to RKAM, the enrichment ratio is not above 0.25.
Turning to GGDR, the enrichment ratio is not above 0.25.
Next, SWLW: not above 0.25; QVMP: not above 0.25.
Next, VMIY: not above 0.25.
For RLLD the value was not above 0.25.
Turning to GCIQ, the enrichment ratio came out at 1.14.
For LLCT the value was not above 0.25; for PAGL, not above 0.25; for QSGW, not above 0.25.
Next, PSLF: not above 0.25; NIDD: not above 0.25; QNPK: not above 0.25.
Next, PFLK: not above 0.25.
As to DVYI, the enrichment ratio is not above 0.25.
Next, ESQD: not above 0.25.
For the variant GVII, the enrichment ratio is 3.16.
For IKTH the value was not above 0.25; for SPAW, not above 0.25; for IEIR, not above 0.25.
Next, PPIL: not above 0.25.
On to IEKR, for which the enrichment ratio was not above 0.25.
For PMTP the value was not above 0.25; for PLWL, not above 0.25.
For LKPP the value was not above 0.25; for QLWP, not above 0.25; for RRGN, not above 0.25.
For AQVT the value was 5.76.
On to WGCD, for which the enrichment ratio was not above 0.25.
For VIKW, the enrichment ratio was not above 0.25.
Next, RTVM: not above 0.25; GDWI: not above 0.25.
For KSAT the value was not above 0.25; for QQGE, not above 0.25.
QLSQ: the enrichment ratio came to 0.294.
Next, KSRQ: not above 0.25; GQKP: not above 0.25; FMRY: not above 0.25.
For RPRC the value was not above 0.25; for WRRV, not above 0.25; for QNLK, not above 0.25.
For TWWH the value was not above 0.25; for HKYV, not above 0.25.
On to WPLF, for which the enrichment ratio was not above 0.25.
Next, TCGS: 6.19.
Next, EAAR: not above 0.25; YGHL: not above 0.25; ISEI: not above 0.25.
Next, RIPF: not above 0.25.
Regarding IFVY, the enrichment ratio was not above 0.25.
For VDEL, the enrichment ratio was not above 0.25.
For the variant FCTA, the enrichment ratio was not above 0.25.
On to WMQI, for which the enrichment ratio was not above 0.25.
For KIDA the value was not above 0.25; for EKHF, not above 0.25.
For QRLD the value was not above 0.25.
As for SNIE, the enrichment ratio was not above 0.25.
Take VVSV: the enrichment ratio is not above 0.25.
For RQKL, the enrichment ratio was not above 0.25.
Next, MLEH: not above 0.25; WVCR: not above 0.25.
As to VPMI, the enrichment ratio was not above 0.25.
Next, EYVF: not above 0.25; HQKP: not above 0.25; SCQQ: not above 0.25.
Next, QMMW: not above 0.25; DYFI: not above 0.25.
HPID: the enrichment ratio is not above 0.25.
Consider LREC, for which the enrichment ratio is not above 0.25.
With YHSI, the enrichment ratio was not above 0.25.
Next, CFIH: not above 0.25.
